The results in this text go back to publication PMC4336329 (PLoS ONE, 2015).

Hit rate of the full screen: of about 310,000 compounds, about 14,000 (4.5%) showed an effect of 50% or more. Effects have a minus sign here. This is one part of the list.
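Further: peak tail current of the secondary pulse compared with the same well before compound.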

In the test the target is human ether-à-go-go-related gene (hERG) potassium channel (human, UniProt Q12809). Briefly: primary screen, population patch clamp on CHO cells stably expressing hERG.
human ether-à-go-go-related gene (hERG) potassium channel, sequence (Q12809 whole entry, looked up): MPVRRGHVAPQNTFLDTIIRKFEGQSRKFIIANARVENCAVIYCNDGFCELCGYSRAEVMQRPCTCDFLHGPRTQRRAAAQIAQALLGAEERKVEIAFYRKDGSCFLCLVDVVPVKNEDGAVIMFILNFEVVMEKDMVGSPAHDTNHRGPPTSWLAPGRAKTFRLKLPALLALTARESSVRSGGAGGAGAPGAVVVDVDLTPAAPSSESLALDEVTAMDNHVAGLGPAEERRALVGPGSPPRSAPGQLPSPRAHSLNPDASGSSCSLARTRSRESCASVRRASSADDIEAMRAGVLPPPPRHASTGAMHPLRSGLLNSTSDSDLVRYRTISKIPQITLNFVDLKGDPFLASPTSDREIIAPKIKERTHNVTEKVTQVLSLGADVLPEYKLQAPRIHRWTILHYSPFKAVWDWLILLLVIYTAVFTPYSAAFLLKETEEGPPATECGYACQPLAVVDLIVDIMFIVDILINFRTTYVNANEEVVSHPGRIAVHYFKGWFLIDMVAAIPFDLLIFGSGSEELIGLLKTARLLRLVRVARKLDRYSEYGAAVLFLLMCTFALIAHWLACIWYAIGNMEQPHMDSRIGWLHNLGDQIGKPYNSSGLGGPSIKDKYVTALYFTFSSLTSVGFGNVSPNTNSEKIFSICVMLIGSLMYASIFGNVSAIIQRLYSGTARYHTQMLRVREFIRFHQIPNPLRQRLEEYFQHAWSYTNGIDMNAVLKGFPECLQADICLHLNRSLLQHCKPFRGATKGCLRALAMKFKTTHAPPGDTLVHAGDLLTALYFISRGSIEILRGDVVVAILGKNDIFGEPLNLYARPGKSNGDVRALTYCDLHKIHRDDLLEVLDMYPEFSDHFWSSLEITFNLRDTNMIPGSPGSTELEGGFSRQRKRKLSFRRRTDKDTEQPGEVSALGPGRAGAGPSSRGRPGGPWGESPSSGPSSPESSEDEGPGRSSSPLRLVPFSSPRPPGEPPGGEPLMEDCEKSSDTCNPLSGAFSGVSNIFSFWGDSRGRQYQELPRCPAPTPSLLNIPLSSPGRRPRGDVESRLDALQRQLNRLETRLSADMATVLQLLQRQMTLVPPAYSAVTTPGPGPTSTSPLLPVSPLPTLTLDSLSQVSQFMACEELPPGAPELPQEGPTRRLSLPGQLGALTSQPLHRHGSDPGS
For `CC1=Nc2ccc(C)cc2N(Cc2ccccc2)C(=O)C1`, the “hERG current change (%, negative = inhibition) at 10uM” value is 9.98%. As for `COCC(C)n1c(C)cc(C(=O)CSc2nnc(Nc3ccccc3F)s2)c1C` (stereo not shown), the “hERG current change (%, negative = inhibition) at 10uM” value was -6.98%.

As for `O=C(/C=C/NCc1cccnc1)C(F)(F)C(F)(F)F`, the “hERG current change (%, negative = inhibition) at 10uM” value was found to be 11.8%. Take `CCOc1ccc(-n2c(C)cc(/C=N/NC(=O)C(N)=O)c2C)cc1`: the “hERG current change (%, negative = inhibition) at 10uM” value is on record as 12.8%.

On to `Cc1cc(OCC(=O)NCc2cccnc2)ccc1[N+](=O)[O-]`, for which the “hERG current change (%, negative = inhibition) at 10uM” value is reported as 4.53%. On to `COc1ccc(C(=O)NCCCNC(=O)c2ccc(C)nc2)cc1`, for which the “hERG current change (%, negative = inhibition) at 10uM” value was 24%.

With `Cc1cccc(C)c1NC(=O)C(=O)c1cn(C)c2ccccc12`, the “hERG current change (%, negative = inhibition) at 10uM” value is reported as 5.47%. Regarding `O=C(CCNC(=O)c1ccc([N+](=O)[O-])cc1)NCc1ccco1`, the “hERG current change (%, negative = inhibition) at 10uM” value is -22.3%. The result for `Cc1ccc(-c2nn(-c3ccccc3)cc2C2CC(c3cccs3)=NN2C(=O)CCC(=O)O)cc1` (stereo not shown) reads 14.7%; that for `COc1ccccc1NC(=O)Nc1cc(NC(=O)Nc2ccccc2OC)c(C)nc1C`, 21.7%. The result for `CC(=O)Nc1ccc(S(=O)(=O)Oc2ccc(N3C(=O)C4CCCCC4C3=O)cc2)cc1` (stereo not shown) reads -20.4%.

`CC1CCCC(NC(=O)CNC(=O)c2cccs2)C1C` (stereo not shown): the “hERG current change (%, negative = inhibition) at 10uM” value is given as -0.85%. The result for `C=CCn1c(COc2ccccc2C)nnc1SCC(=O)O` reads 16.6%; that for `Cc1ccc2nc(SCC(=O)N3CCCCCC3)nc(=O)n2c1`, 10.7%; that for `CCOC(=O)N1CCN(C(=O)C2CCN(Cc3ccc(OC)cc3OC)CC2)CC1.O=C(O)C(=O)O`, -38.5%. Take `O=C1Nc2ccc(Cl)cc2C12Nc1ccccc1-c1nnc(SCc3ccccc3F)nc1O2` (stereo not shown): the “hERG current change (%, negative = inhibition) at 10uM” value was -1.36%. The result for `CC(=O)N1c2ccc(S(=O)(=O)NCCC(=O)NCc3ccc(N(C)C)cc3)cc2CC1C` (stereo not shown) reads 13.8%; that for `O=C(COc1nnc2ccccn12)N1CCN(S(=O)(=O)c2ccccc2)CC1`, 18%; that for `CCSC(=O)CCCCCCCCCCCO`, 11.6%. The result for `COc1ccc(CCNC(=O)c2cc(C)oc2C)cc1OC` reads 14.9%; that for `CC(=O)O[C@H]1CC[C@@]2(C)C(=CC[C@H]3[C@@H]4CC[C@H](C5(C)OCCO5)[C@@]4(C)CC[C@@H]32)C1`, 13.5%. The value for `CSCCC(NC(=O)COc1ccccc1)C(=O)N1CCN(c2ccccc2)CC1` (stereo not shown) was -51.9%; that for `CCN(CC)S(=O)(=O)c1ccc(NC(=O)c2ccc(N(C)S(C)(=O)=O)cc2)cc1` was 1.68%; that for `O=[N+]([O-])c1ccc(S(=O)(=O)N2CCN=C2SCc2ccc(F)cc2)cc1` was 1.43%. For `COc1ccc2[nH]c(C)c(C(=O)CN3CCN(C(=O)c4ccco4)CC3)c2c1`, the “hERG current change (%, negative = inhibition) at 10uM” value is reported as -23.2%. The result for `Cc1sc2c(c1C)C(=O)NC(c1ccccc1F)N2` (stereo not shown) reads 8.33%. The result for `CC(=O)N1CCc2cc(S(=O)(=O)N3CCCCCC3)ccc21` reads -1.59%; that for `COC(=O)c1cc2c(N)c(C(=O)c3ccccc3)sc2nc1C(OC)OC`, 0.631%; that for `Cc1nc2nc(SCC(=O)c3ccc([N+](=O)[O-])cc3)[nH]c2cc1Br`, 8.58%.

For `CSC(=NC(C)c1ccccc1)NS(=O)(=O)c1cccs1` (stereo not shown), the “hERG current change (%, negative = inhibition) at 10uM” value is reported as 4.76%. As for `CCOC(=O)c1cn2nc(-c3ccc(OC)cc3)cc2nc1C1CCN(C(=O)OC(C)(C)C)CC1`, the “hERG current change (%, negative = inhibition) at 10uM” value is reported as 12.5%. The result for `O=C(Nc1ccc(Cl)cc1)N1CCN(Cc2ccc3c(c2)OCO3)CC1` reads -27.6%; that for `O=C(NCc1ccc(F)cc1)c1ccc(Br)o1`, -7.47%; that for `Cc1ccc(CNC(=O)c2ccc(N3CCC4(CC3)CC(c3ccccc3)=NO4)c(NC(=O)c3cccc(C)c3)c2)cc1`, -6.37%.

As to `Cc1onc(-c2ccccc2)c1C(=O)N1CCN(S(=O)(=O)c2ccccc2C(F)(F)F)CC1`, the “hERG current change (%, negative = inhibition) at 10uM” value turned out to be 22.6%. The value for `COc1ccc2cc3c(N)nn(C(=O)c4ccccc4[N+](=O)[O-])c3nc2c1` was -1.76%; that for `CC1CCC(NC(=O)COC(=O)C2=NN(c3ccccc3)C(=O)CC2)CC1` (stereo not shown) was 8.43%; that for `CS(=O)(=O)c1ccc(-c2cccc(NC(=O)COc3ccccc3)c2)nn1` was -3.45%. Consider `O=[N+]([O-])c1cccc(C(=S)N2CCN(c3ccccc3)CC2)c1`, for which the “hERG current change (%, negative = inhibition) at 10uM” value is given as -5.65%. The result for `CC(=O)N1CCN(c2ccc(NC(=O)c3ccc4c(c3)OCCO4)cc2Cl)CC1` reads -64.7%; that for `CS(=O)(=O)N1CCC(C(=O)Nc2ccc(F)cc2F)CC1`, 10.7%; that for `COCCN1CCN(Cc2cn(C)nc2-c2ccc(Oc3ccccc3)cc2)CC1`, -65.2%.

As for `Cc1ccc(C)c(C(=O)NCCN(C)C)c1`, the “hERG current change (%, negative = inhibition) at 10uM” value turned out to be 5.16%. The result for `CC(=O)C1=C(O)C(=O)N(CC(=O)O)C1c1ccccc1Cl` (stereo not shown) reads -5.33%; that for `C=CCNC(=O)C12CC3CC(C1)CC(C(=O)NCC=C)(C3)C2`, -7.18%.

With `N#CCCN(CC(=O)O)S(=O)(=O)c1ccccc1`, the “hERG current change (%, negative = inhibition) at 10uM” value is 5.74%. The value for `C[C@H](CCC(=O)O)[C@H]1CC[C@H]2[C@@H]3[C@H](O)C[C@@H]4C[C@H](O)CC[C@]4(C)[C@H]3C[C@H](O)[C@]12C` was 4.48%; that for `Fc1ccc(CN2CCCCCCC2)c(F)c1` was 8.29%; that for `Cc1ccc(NC(=O)CN2CCCCCC2)cc1Br.Cl` was -20.3%. The result for `CCCn1c(SCC(=O)Nc2cccc(Cl)c2Cl)n[nH]c1=O` reads 13.5%; that for `Cc1nccn1-c1ccc(C(F)(F)F)cc1[N+](=O)[O-]`, 11.2%; that for `O=C(NCc1cccc(C(F)(F)F)c1)c1ccc[nH]1`, 0.702%. The value for `CC1CCN(CCCNC(=O)C2CCC(=O)N2C2CCCC2)CC1` (stereo not shown) was -1.42%.

For `COc1ccc(C(=O)COC(=O)C2CCN(S(=O)(=O)c3cccc4cccnc34)CC2)cc1`, the “hERG current change (%, negative = inhibition) at 10uM” value worked out at 8.26%. For `Cc1coc(NC(=O)CSc2nc(-c3ccc(Cl)cc3)cc(C(F)(F)F)c2C#N)n1`, the “hERG current change (%, negative = inhibition) at 10uM” value stood at 9.8%.
